# According to the supplement of paper PMC8728848:
# The other results are listed elsewhere or left out.
# B1: CSA (Cytisus scoparius), P29257 (protein)
# chain: SEELSFSFTKFKTDQKNLILQRDALITPTGKLQLTTVENGKPAAYSLGRALYSTPIHIWDKSTGDEASFATFFSFVISDAPNPSTAATDGLAFFLAPADTQPQSAGGYLGLFEKDSSYNSSNQIVAVEFDTYYNSAWDPQTNPHIGIDVNTIKSKKVSSWGFKNGNVATVLITYQPSSKSLVASLVYPSGQTSDKTSYIISANVDLKATVPEWVRIGFSATTGQTDNYIETHDILSWSFKSKLPATKN
# Tests used:
# Assay in all cases: glycan array binding signal (z-score within array); higher = stronger binding
# Settings in all cases: glycan notation: IUPAC condensed, linker removed
# [1] = biological target: Fuc(a1-2)Gal
# Method in brief: (§1)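 Glycan array binding is given as a within-array Z-score, which can be read as non-binding when negative. The arrays, 3228 of them, came from the Consortium for Functional Glycomics database and were retained only where the protein sequence was available. Z-scores were averaged across arrays of the same protein sequence at different concentrations or buffers and across linkers.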
# [2] = biological target: Fuc(a1-2)Gal(b1-3)GalNAc
# Method in brief: as §1
# [3] = biological target: Fuc(a1-2)Gal(b1-3)GalNAc(a1-3)[Fuc(a1-2)]Gal(b1-4)Glc
# Method in brief: as §1
# [4] = biological target: Fuc(a1-2)Gal(b1-3)GalNAc(a1-3)[Fuc(a1-2)]Gal(b1-4)GlcNAc
# Method in brief: as §1
# [5] = biological target: Fuc(a1-2)Gal(b1-3)GalNAc(b1-3)Gal
# Method in brief: as §1
# [6] = biological target: Fuc(a1-2)Gal(b1-3)GalNAc(b1-3)Gal(a1-4)Gal(b1-4)Glc
# Method in brief: as §1
# [7] = biological target: Fuc(a1-2)Gal(b1-3)GalNAc(b1-4)[Neu5Ac(a2-3)]Gal(b1-4)Glc
# Method in brief: as §1
# [8] = biological target: Fuc(a1-2)Gal(b1-3)GlcNAc
# Method in brief: as §1
# [9] = biological target: Fuc(a1-2)Gal(b1-3)GlcNAc(b1-2)Man(a1-3)[Fuc(a1-2)Gal(b1-3)GlcNAc(b1-2)Man(a1-6)]Man(b1-4)GlcNAc(b1-4)GlcNAc
# Method in brief: as §1
# [10] = biological target: Fuc(a1-2)Gal(b1-3)GlcNAc(b1-2)Man(a1-3)[Fuc(a1-2)Gal(b1-3)GlcNAc(b1-2)Man(a1-6)]Man(b1-4)GlcNAc(b1-4)[Fuc(a1-6)]GlcNAc
# Method in brief: as §1
# [11] = biological target: Fuc(a1-2)Gal(b1-3)GlcNAc(b1-3)Gal(b1-4)Glc
# Method in brief: as §1
# [12] = biological target: Fuc(a1-2)Gal(b1-3)GlcNAc(b1-3)GalNAc
# Method in brief: as §1
# [13] = biological target: Fuc(a1-2)Gal(b1-3)GlcNAc(b1-3)[Fuc(a1-2)Gal(b1-3)GlcNAc(b1-6)]GalNAc
# Method in brief: as §1
# [14] = biological target: Fuc(a1-2)Gal(b1-3)GlcNAc(b1-3)[Gal(b1-4)GlcNAc(b1-6)]Gal(b1-4)Glc
# Method in brief: as §1
# [15] = biological target: Fuc(a1-2)Gal(b1-3)GlcNAc(b1-3)[Neu5Ac(a2-6)Gal(b1-4)GlcNAc(b1-6)]Gal(b1-4)Glc
# Method in brief: as §1
# [16] = biological target: Fuc(a1-2)Gal(b1-3)GlcNAc6S
# Method in brief: as §1
# [17] = biological target: Fuc(a1-2)Gal(b1-3)[Fuc(a1-4)]GlcNAc
# Method in brief: as §1
# [18] = biological target: Fuc(a1-2)Gal(b1-3)[Fuc(a1-4)]GlcNAc(b1-2)Man(a1-3)[Fuc(a1-2)Gal(b1-3)[Fuc(a1-4)]GlcNAc(b1-2)Man(a1-3)]Man(b1-4)GlcNAc(b1-4)GlcNAc
# Method in brief: as §1
# [19] = biological target: Fuc(a1-2)Gal(b1-3)[Fuc(a1-4)]GlcNAc(b1-2)Man(a1-3)[Fuc(a1-2)Gal(b1-3)[Fuc(a1-4)]GlcNAc(b1-2)Man(a1-6)]Man(b1-4)GlcNAc(b1-4)[Fuc(a1-6)]GlcNAc(b1-4)[Fuc(a1-6)]GlcNAc
# Method in brief: as §1
# [20] = biological target: Fuc(a1-2)Gal(b1-3)[Fuc(a1-4)]GlcNAc(b1-3)[Fuc(a1-3)[Gal(b1-4)]GlcNAc(b1-6)]Gal(b1-4)Glc
# Method in brief: as §1
# [21] = biological target: Fuc(a1-2)Gal(b1-3)[Fuc(a1-4)]GlcNAc(b1-3)[Gal(b1-4)GlcNAc(b1-6)]Gal(b1-4)Glc
# Method in brief: as §1
# [22] = biological target: Fuc(a1-2)Gal(b1-4)Fuc(a1-3)]GlcNAc(b1-2)Man(a1-3)[Fuc(a1-2)Gal(b1-4)[Fuc(a1-3)]GlcNAc(b1-2)Man(a1-6)]Man(b1-4)GlcNAc(b1-4)GlcNAc
# Method in brief: as §1
# [23] = biological target: Fuc(a1-2)Gal(b1-4)Glc
# Method in brief: as §1
# [24] = biological target: Fuc(a1-2)Gal(b1-4)Glc6S
# Method in brief: as §1
# [25] = biological target: Fuc(a1-2)Gal(b1-4)GlcNAc
# Method in brief: as §1
# [26] = biological target: Fuc(a1-2)Gal(b1-4)GlcNAc(b1-2)Man
# Method in brief: as §1
# [27] = biological target: Fuc(a1-2)Gal(b1-4)GlcNAc(b1-2)Man(a1-3)[Fuc(a1-2)Gal(b1-4)GlcNAc(b1-2)Man(a1-6)]Man(b1-4)GlcNAc(b1-4)GlcNAc
# Method in brief: as §1
# [28] = biological target: Fuc(a1-2)Gal(b1-4)GlcNAc(b1-2)Man(a1-3)[Fuc(a1-2)Gal(b1-4)GlcNAc(b1-2)Man(a1-6)]Man(b1-4)GlcNAc(b1-4)[Fuc(a1-6)]GlcNAc
# Method in brief: as §1
# [29] = biological target: Fuc(a1-2)Gal(b1-4)GlcNAc(b1-2)[Fuc(a1-2)Gal(b1-4)GlcNAc(b1-4)]Man(a1-3)[Fuc(a1-2)Gal(b1-4)GlcNAc(b1-2)Man(a1-6)]Man(b1-4)GlcNAc(b1-4)GlcNAc
# Method in brief: as §1
# [30] = biological target: Fuc(a1-2)Gal(b1-4)GlcNAc(b1-3)Gal(b1-4)GlcNAc
# Method in brief: as §1
# [31] = biological target: Fuc(a1-2)Gal(b1-4)GlcNAc(b1-3)Gal(b1-4)GlcNAc(b1-2)Man(a1-3)[Fuc(a1-2)Gal(b1-4)GlcNAc(b1-3)Gal(b1-4)GlcNAc(b1-2)Man(a1-6)]Man(b1-4)GlcNAc(b1-4)GlcNAc
# Method in brief: as §1
# [32] = biological target: Fuc(a1-2)Gal(b1-4)GlcNAc(b1-3)Gal(b1-4)GlcNAc(b1-3)Gal(b1-4)GlcNAc
# Method in brief: as §1
# [33] = biological target: Fuc(a1-2)Gal(b1-4)GlcNAc(b1-3)GalNAc
# Method in brief: as §1
# [34] = biological target: Fuc(a1-2)Gal(b1-4)GlcNAc(b1-3)[Fuc(a1-2)Gal(b1-4)GlcNAc(b1-6)]GalNAc
# Method in brief: as §1
# [35] = biological target: Fuc(a1-2)Gal(b1-4)GlcNAc(b1-3)[Fuc(a1-3)[Gal(b1-4)]GlcNAc(b1-6)]Gal(b1-4)Glc
# Method in brief: as §1
# [36] = biological target: Fuc(a1-2)Gal(b1-4)GlcNAc(b1-6)GalNAc
# Method in brief: as §1
# [37] = biological target: Fuc(a1-2)Gal(b1-4)GlcNAc6S
# Method in brief: as §1
binder,measurement,setting,value
B1,glycan array binding signal (z-score),[1],-0.195
same,glycan array binding signal (z-score),[2],-0.169
same,glycan array binding signal (z-score),[3],-0.148
same,glycan array binding signal (z-score),[4],-0.115
same,glycan array binding signal (z-score),[5],-0.171
same,glycan array binding signal (z-score),[6],-0.174
same,glycan array binding signal (z-score),[7],-0.177
same,glycan array binding signal (z-score),[8],-0.188
same,glycan array binding signal (z-score),[9],0.099
same,glycan array binding signal (z-score),[10],-0.169
same,glycan array binding signal (z-score),[11],-0.178
same,glycan array binding signal (z-score),[12],-0.16
same,glycan array binding signal (z-score),[13],-0.16
same,glycan array binding signal (z-score),[14],-0.129
same,glycan array binding signal (z-score),[15],-0.198
same,glycan array binding signal (z-score),[16],-0.18
same,glycan array binding signal (z-score),[17],-0.172
same,glycan array binding signal (z-score),[18],-0.179
same,glycan array binding signal (z-score),[19],-0.207
same,glycan array binding signal (z-score),[20],-0.19
same,glycan array binding signal (z-score),[21],-0.247
same,glycan array binding signal (z-score),[22],0.041
same,glycan array binding signal (z-score),[23],-0.164
same,glycan array binding signal (z-score),[24],-0.106
same,glycan array binding signal (z-score),[25],-0.097
same,glycan array binding signal (z-score),[26],-0.215
same,glycan array binding signal (z-score),[27],0.276
same,glycan array binding signal (z-score),[28],-0.02
same,glycan array binding signal (z-score),[29],0.047
same,glycan array binding signal (z-score),[30],0.07
same,glycan array binding signal (z-score),[31],0.571
same,glycan array binding signal (z-score),[32],0.266
same,glycan array binding signal (z-score),[33],-0.179
same,glycan array binding signal (z-score),[34],-0.094
same,glycan array binding signal (z-score),[35],-0.159
same,glycan array binding signal (z-score),[36],0.18
same,glycan array binding signal (z-score),[37],-0.135
